From the supplement of paper PMC12217912 come the findings set out here.

This is one part of the list. The full chains were built here from the parent and the listed change. Values near 0.05 are background.

To fix the notation:
B1: TEV protease; numbered along this chain (parent)
chain: MGESLFKGPRDYNPISSSICHLTNESDGHTTSLYGIGFGPFIITNKHLFRRNNGTLVVQSLHGVFKVKDTTTLQQHLVDGRDMIIIRMPKDFPPFPQKLKFREPQREERICLVTTNFQTKSMSSMVSDTSCTFPSGDGIFWKHWIQTKDGQCGSPLVSTRDGFIVGIHSASNFTNTNNYFTSVPKNFMELLTNQEAQQWVSGWRLNADSVLWGGHKVFMVKPEEPFQPVKEATQL

In this experiment the parent is B1. Description: raw area under fraction-flipped curve 0-4 h after induction (AUC4h, not background-subtracted), DNA-recorder readout of cleavage of the substrate (dimensionless); higher = more cleavage of the substrate by the protease variant. The conditions noted are these: temperature: 34 °C; time window: 0-4 h after rhamnose induction. As to the method:
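In vivo DNA recorder in E. coli TOP10(DE3) ΔrhaA at 34 °C. Each TEVp single-site mutant (parent TEVp 0) is paired with a single-site variant of the 7-mer TEVs (canonical ENLYFQ|S). The substrate sits between flexible linkers in a Bxb1-sfGFP-TEVs-SsrA fusion, so cleavage stabilises Bxb1 and speeds flipping of a recombination array, read by NGS. The value is the raw area under the fraction-flipped curve over 0-4 h after rhamnose induction (AUC4h), with ≥20 reads per time point. It is not background-subtracted; inactive controls average about 0.047.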
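Also: Bxb1 expression induced with 0.2% (w/v) L-rhamnose at OD600 near 0.5, cultures sampled hourly, flipped fraction per protease–substrate barcode pair counted by paired-end Illumina sequencing.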

Turning to MGESLFKGPRDYNPISSSICHLTNESDGHTTSLYGIGFGPFIITNKHLFRRNNGTLVVQSLDGVFKVKDTTTLQQHLVDGRDMIIIRMPKDFPPFPQKLKFREPQREERICLVTTNFQTKSMSSMVSDTSCTFPSGDGIFWKHWIQTKDGQCGSPLVSTRDGFIVGIHSASNFTNTNNYFTSVPKNFMELLTNQEAQQWVSGWRLNADSVLWGGHKVFMVKPEEPFQPVKEATQL [H62D], the “area with substrate ENLAFQS” value turned out to be 0.0748, the “area with substrate ENLCFQS” value was determined as 0.0691, the “area with substrate ENLDFQS” value was found to be 0.064 and the “area with substrate ENLEFQS” value was determined as 0.0529. The “area with substrate ENLFFQS” value stood at 0.0796, the “area with substrate ENLHFQS” value worked out at 0.0649, the “area with substrate ENLIFQS” value turned out to be 0.0763 and the “area with substrate ENLKFQS” value amounted to 0.0773. Besides, the “area with substrate ENLLFQS” value amounted to 0.0697, the “area with substrate ENLMFQS” value worked out at 0.0645, the “area with substrate ENLNFQS” value came to 0.0616 and the “area with substrate ENLQFQS” value was 0.0656. Also, the “area with substrate ENLRFQS” value was 0.0736, the “area with substrate ENLSFQS” value was 0.0665, the “area with substrate ENLVFQS” value came to 0.0755 and the “area with substrate ENLWFQS” value turned out to be 0.0627.

Consider MGESLFKGPRDYNPISSSICHLTNESDGHTTSLYGIGFGPFIITNKHLFRRNNGTLVVQSLFGVFKVKDTTTLQQHLVDGRDMIIIRMPKDFPPFPQKLKFREPQREERICLVTTNFQTKSMSSMVSDTSCTFPSGDGIFWKHWIQTKDGQCGSPLVSTRDGFIVGIHSASNFTNTNNYFTSVPKNFMELLTNQEAQQWVSGWRLNADSVLWGGHKVFMVKPEEPFQPVKEATQL [H62F], for which the “area with substrate ENLAFQS” value is 0.0631, the “area with substrate ENLDFQS” value turned out to be 0.059, the “area with substrate ENLEFQS” value was found to be 0.0678 and the “area with substrate ENLFFQS” value was found to be 0.0712. Moreover, the “area with substrate ENLHFQS” value was 0.0728, the “area with substrate ENLIFQS” value worked out at 0.0729, the “area with substrate ENLKFQS” value came to 0.0769 and the “area with substrate ENLLFQS” value was 0.0701. Besides, the “area with substrate ENLNFQS” value came out at 0.0581, the “area with substrate ENLPFQS” value was determined as 0.0635, the “area with substrate ENLRFQS” value stood at 0.0812 and the “area with substrate ENLSFQS” value was found to be 0.0613. Further, the “area with substrate ENLWFQS” value is 0.0719.

As for MGESLFKGPRDYNPISSSICHLTNESDGHTTSLYGIGFGPFIITNKHLFRRNNGTLVVQLLHGVFKVKDTTTLQQHLVDGRDMIIIRMPKDFPPFPQKLKFREPQREERICLVTTNFQTKSMSSMVSDTSCTFPSGDGIFWKHWIQTKDGQCGSPLVSTRDGFIVGIHSASNFTNTNNYFTSVPKNFMELLTNQEAQQWVSGWRLNADSVLWGGHKVFMVKPEEPFQPVKEATQL [S60L], the “area with substrate ENLAFQS” value came to 0.036, the “area with substrate ENLDFQS” value worked out at 0.0565, the “area with substrate ENLFFQS” value came to 0.0758 and the “area with substrate ENLHFQS” value turned out to be 0.0666. The “area with substrate ENLKFQS” value came out at 0.0645, the “area with substrate ENLLFQS” value was found to be 0.0914, the “area with substrate ENLPFQS” value is 0.0544 and the “area with substrate ENLSFQS” value came out at 0.0587.

Consider MGESLFKGPRDYNPISSSICHLTNESDGHTTSLYGIGFGPFIITNKHLFRRNNGTLVVQSLHGVFKDKDTTTLQQHLVDGRDMIIIRMPKDFPPFPQKLKFREPQREERICLVTTNFQTKSMSSMVSDTSCTFPSGDGIFWKHWIQTKDGQCGSPLVSTRDGFIVGIHSASNFTNTNNYFTSVPKNFMELLTNQEAQQWVSGWRLNADSVLWGGHKVFMVKPEEPFQPVKEATQL [V67D], for which the “area with substrate ENLAFQS” value stood at 0.058, the “area with substrate ENLDFQS” value amounted to 0.0595, the “area with substrate ENLEFQS” value came out at 0.0627 and the “area with substrate ENLFFQS” value worked out at 0.0533. For the same variant, the “area with substrate ENLGFQS” value is 0.0473, the “area with substrate ENLHFQS” value stood at 0.0475, the “area with substrate ENLKFQS” value was 0.0406 and the “area with substrate ENLNFQS” value was found to be 0.0531. The “area with substrate ENLPFQS” value worked out at 0.0504, the “area with substrate ENLQFQS” value was found to be 0.0501, the “area with substrate ENLSFQS” value was found to be 0.0503 and the “area with substrate ENLWFQS” value stood at 0.0469.

For MGESLFKGPRDYNPISSSICHLTNESDGHTTSLYGIGFGPFIITNKHLFRRNNGTLVVQSLHGVFKLKDTTTLQQHLVDGRDMIIIRMPKDFPPFPQKLKFREPQREERICLVTTNFQTKSMSSMVSDTSCTFPSGDGIFWKHWIQTKDGQCGSPLVSTRDGFIVGIHSASNFTNTNNYFTSVPKNFMELLTNQEAQQWVSGWRLNADSVLWGGHKVFMVKPEEPFQPVKEATQL [V67L], the “area with substrate ENLAFQS” value was found to be 0.0652, the “area with substrate ENLDFQS” value turned out to be 0.0509, the “area with substrate ENLFFQS” value amounted to 0.0703 and the “area with substrate ENLHFQS” value worked out at 0.0638. The “area with substrate ENLIFQS” value came to 0.0464, the “area with substrate ENLKFQS” value stood at 0.0775, the “area with substrate ENLLFQS” value turned out to be 0.0817 and the “area with substrate ENLNFQS” value worked out at 0.0636. The “area with substrate ENLPFQS” value amounted to 0.0687, the “area with substrate ENLQFQS” value was 0.0754 and the “area with substrate ENLRFQS” value was determined as 0.0823.

Turning to MGESLFKGPRDYNPISSSICHLTNESDGHTTSLYGIGFGPFIITNKHLFRRNNGTLVVQSLHQVFKVKDTTTLQQHLVDGRDMIIIRMPKDFPPFPQKLKFREPQREERICLVTTNFQTKSMSSMVSDTSCTFPSGDGIFWKHWIQTKDGQCGSPLVSTRDGFIVGIHSASNFTNTNNYFTSVPKNFMELLTNQEAQQWVSGWRLNADSVLWGGHKVFMVKPEEPFQPVKEATQL [G63Q], the “area with substrate ENLAFQS” value worked out at 0.0545, the “area with substrate ENLCFQS” value came to 0.0685, the “area with substrate ENLDFQS” value was 0.0674 and the “area with substrate ENLEFQS” value turned out to be 0.059. Besides, the “area with substrate ENLFFQS” value was 0.0804, the “area with substrate ENLGFQS” value amounted to 0.058, the “area with substrate ENLHFQS” value was 0.0834 and the “area with substrate ENLKFQS” value amounted to 0.0738. Moreover, the “area with substrate ENLLFQS” value is 0.0735, the “area with substrate ENLNFQS” value stood at 0.0626, the “area with substrate ENLPFQS” value came out at 0.0522 and the “area with substrate ENLQFQS” value turned out to be 0.0613. Further, the “area with substrate ENLRFQS” value was 0.0614 and the “area with substrate ENLSFQS” value amounted to 0.0582.

Take MGESLFKGPRDYNPISSSICHLTNESDGHTTSLYGIGFGPFIITNKHLFRRNNGTLVVQSLHYVFKVKDTTTLQQHLVDGRDMIIIRMPKDFPPFPQKLKFREPQREERICLVTTNFQTKSMSSMVSDTSCTFPSGDGIFWKHWIQTKDGQCGSPLVSTRDGFIVGIHSASNFTNTNNYFTSVPKNFMELLTNQEAQQWVSGWRLNADSVLWGGHKVFMVKPEEPFQPVKEATQL [G63Y]: the “area with substrate ENLAFQS” value was 0.0542, the “area with substrate ENLDFQS” value turned out to be 0.0655, the “area with substrate ENLEFQS” value is 0.083 and the “area with substrate ENLFFQS” value was determined as 0.074. The “area with substrate ENLKFQS” value came to 0.0773, the “area with substrate ENLLFQS” value amounted to 0.0604, the “area with substrate ENLMFQS” value was 0.0556 and the “area with substrate ENLNFQS” value turned out to be 0.0532. The “area with substrate ENLPFQS” value was determined as 0.063, the “area with substrate ENLRFQS” value is 0.0685, the “area with substrate ENLSFQS” value was found to be 0.0569 and the “area with substrate ENLTFQS” value was 0.0716. Further, the “area with substrate ENLVFQS” value amounted to 0.0863.

Regarding MGESLFKGPRDYNPISSSICHLTNESDGHTTSLYGIGFGPFIITNKHLFRRNNGTLVVQSLHGVWKVKDTTTLQQHLVDGRDMIIIRMPKDFPPFPQKLKFREPQREERICLVTTNFQTKSMSSMVSDTSCTFPSGDGIFWKHWIQTKDGQCGSPLVSTRDGFIVGIHSASNFTNTNNYFTSVPKNFMELLTNQEAQQWVSGWRLNADSVLWGGHKVFMVKPEEPFQPVKEATQL [F65W], the “area with substrate ENLAFQS” value stood at 0.0559, the “area with substrate ENLDFQS” value turned out to be 0.0702, the “area with substrate ENLEFQS” value is 0.062 and the “area with substrate ENLFFQS” value was found to be 0.0841. Also, the “area with substrate ENLLFQS” value turned out to be 0.0795, the “area with substrate ENLMFQS” value stood at 0.0858, the “area with substrate ENLNFQS” value worked out at 0.0622 and the “area with substrate ENLPFQS” value is 0.0698. Besides, the “area with substrate ENLRFQS” value is 0.0862, the “area with substrate ENLSFQS” value was found to be 0.0543 and the “area with substrate ENLVFQS” value was 0.0849.

Take MGESLFKGPRDYNPISSSICHLTNESDGHTTSLYGIGFGPFIITNKHLFRRNNGTLVVQSLHGVFPVKDTTTLQQHLVDGRDMIIIRMPKDFPPFPQKLKFREPQREERICLVTTNFQTKSMSSMVSDTSCTFPSGDGIFWKHWIQTKDGQCGSPLVSTRDGFIVGIHSASNFTNTNNYFTSVPKNFMELLTNQEAQQWVSGWRLNADSVLWGGHKVFMVKPEEPFQPVKEATQL [K66P]: the “area with substrate ENLAFQS” value stood at 0.0495, the “area with substrate ENLCFQS” value was 0.0596, the “area with substrate ENLDFQS” value is 0.0574 and the “area with substrate ENLEFQS” value turned out to be 0.0718. In addition, the “area with substrate ENLFFQS” value is 0.0715, the “area with substrate ENLGFQS” value came to 0.0682, the “area with substrate ENLHFQS” value came to 0.0652 and the “area with substrate ENLIFQS” value turned out to be 0.0678. Moreover, the “area with substrate ENLKFQS” value came to 0.0741, the “area with substrate ENLLFQS” value came out at 0.0601, the “area with substrate ENLMFQS” value was 0.0645 and the “area with substrate ENLNFQS” value was determined as 0.0593. Also, the “area with substrate ENLPFQS” value stood at 0.0518, the “area with substrate ENLQFQS” value was 0.0548, the “area with substrate ENLRFQS” value worked out at 0.0668 and the “area with substrate ENLSFQS” value was found to be 0.0539. Moreover, the “area with substrate ENLWFQS” value was 0.0625.
